# Out of some 310,000 compounds screened, about 14,000 (4.5%) showed an effect of 50% or more. The effect is printed as a negative number. The list shows a part of the results.
# Biological target: human ether-à-go-go-related gene (hERG) potassium channel (human, UniProt Q12809)
# Experiment: primary screen, population patch clamp on CHO cells stably expressing hERG
# 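Further: peak tail current of the secondary pulse compared with the same well before compound.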
# human ether-à-go-go-related gene (hERG) potassium channel, sequence (Q12809 whole entry, looked up): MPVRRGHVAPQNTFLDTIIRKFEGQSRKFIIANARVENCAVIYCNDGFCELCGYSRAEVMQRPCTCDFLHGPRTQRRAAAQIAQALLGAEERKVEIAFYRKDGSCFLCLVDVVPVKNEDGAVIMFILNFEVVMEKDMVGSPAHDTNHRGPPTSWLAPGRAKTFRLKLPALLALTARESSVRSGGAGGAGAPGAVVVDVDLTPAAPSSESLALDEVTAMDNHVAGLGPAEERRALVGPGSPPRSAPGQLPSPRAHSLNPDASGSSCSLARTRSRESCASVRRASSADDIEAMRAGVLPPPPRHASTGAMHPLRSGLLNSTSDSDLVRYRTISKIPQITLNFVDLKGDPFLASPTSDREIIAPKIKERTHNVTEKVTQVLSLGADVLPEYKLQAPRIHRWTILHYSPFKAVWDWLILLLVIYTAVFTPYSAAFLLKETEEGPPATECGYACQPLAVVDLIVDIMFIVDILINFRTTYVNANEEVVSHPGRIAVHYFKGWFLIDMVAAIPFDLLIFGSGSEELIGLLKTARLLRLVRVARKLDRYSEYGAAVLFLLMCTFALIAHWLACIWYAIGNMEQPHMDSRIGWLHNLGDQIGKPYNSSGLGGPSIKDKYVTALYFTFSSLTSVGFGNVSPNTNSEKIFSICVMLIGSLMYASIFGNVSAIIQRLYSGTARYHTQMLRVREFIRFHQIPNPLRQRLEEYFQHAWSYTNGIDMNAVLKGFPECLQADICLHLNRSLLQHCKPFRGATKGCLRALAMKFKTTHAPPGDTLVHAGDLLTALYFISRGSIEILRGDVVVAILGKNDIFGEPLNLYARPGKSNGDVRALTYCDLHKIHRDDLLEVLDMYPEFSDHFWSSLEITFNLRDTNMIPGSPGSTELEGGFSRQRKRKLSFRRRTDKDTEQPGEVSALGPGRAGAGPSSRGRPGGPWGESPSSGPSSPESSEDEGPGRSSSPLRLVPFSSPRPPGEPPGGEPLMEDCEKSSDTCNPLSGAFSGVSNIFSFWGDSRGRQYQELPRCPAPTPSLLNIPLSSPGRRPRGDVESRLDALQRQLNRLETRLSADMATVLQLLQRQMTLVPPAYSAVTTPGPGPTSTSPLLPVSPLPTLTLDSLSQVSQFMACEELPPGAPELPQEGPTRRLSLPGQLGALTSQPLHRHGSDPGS
row,SMILES,"hERG current change (%, negative = inhibition) at 10uM [%]"
1,CCC(Sc1nc2cc3c(cc2c(=O)n1Cc1ccco1)OCO3)C(=O)NCCOC (stereo not shown),-63.6
2,O=C(NCc1cccnc1)Nc1ccc2c(c1)OCO2,-7.04
3,CCOc1ccc(NC(=O)C2CC3CCC2C3)cc1 (stereo not shown),16.8
4,COc1ccccc1N1CCN(Cc2ccc(Br)o2)CC1,0.167
5,Cc1cccc(/C=N/NC(=O)c2cccc(NC(=O)c3ccccc3)c2)n1,0.172
6,CCCCNC(=O)CSc1nc2ccc(C)cc2[nH]1,17.6
7,CCOc1c(Br)cc(/C=N\NC(=O)c2ccccc2)cc1OC,20.8
8,CCn1c(/C=C/N(C)c2ccccc2)[n+](CC)c2ccc(Cl)cc21.[I-],-16
9,O=C(O)CSc1nnc(-c2ccc(S(=O)(=O)N3CCCC3)cc2)n1Cc1ccco1,7.69
10,CC1(C)CC(NC(=O)CSc2ccccc2)CC(C)(C)N1,11.3
11,CCCCN(C(=O)c1ccc(OC(F)(F)F)cc1)c1c(N)n(CCC)c(=O)[nH]c1=O,28
12,Cc1ccc(C(=O)Oc2ccc(/C=N/NC(N)=O)cc2)cc1,25
13,CCCNC(=O)C1CC(c2ccccc2C(F)(F)F)=NO1 (stereo not shown),18
14,O=C(CCNC(=O)c1ccc(Br)cc1)Nc1ccccc1N1CCOCC1,-9.58
15,Cc1ccc(C2c3[nH]c4ccccc4c3C[C@H]3C(=O)N(c4ccccc4C(=O)N4CCC(C(=O)O)CC4)C(=O)N23)cc1 (stereo partly shown),-0.711
16,COc1ccc2cc(CCNS(=O)(=O)c3c(C)cc(C)cc3C)c(=O)[nH]c2c1,4.3
17,COCCCNC(=O)CCN1C(=O)COc2ccccc21,10
18,Cc1cc(-c2nnc(SCC(=O)Nc3cccc(C)c3C)n2N)n[nH]1,-1.05
19,Cc1ccc(S(=O)(=O)NCC(=O)OCC(=O)Nc2ccccc2OC(F)F)cc1,-0.342
20,O=C(c1ccc(Cl)c(Cl)c1)N1CCCC1,12.9
21,COc1ccc(NC(=O)COC(=O)C2CC(=O)N(c3ccc(C)cc3)C2)cc1 (stereo not shown),2.68
22,CN(C)c1cccc(C(=O)OCC(=O)N(C)c2ccccc2)c1,8.46

row,SMILES,"hERG current change (%, negative = inhibition) at 10uM [%]"
1,Cc1cc(C)cc(OCC(=O)NNC(=O)c2cc(C)[nH]n2)c1,13.9
2,Cc1nnc(NC(=O)c2csc3c2CCC(C)C3)s1 (stereo not shown),13.9
3,Cc1ccc(C(=O)NCCc2nnc3ccc(SCC(=O)Nc4c(C)cc(C)cc4C)nn23)cc1,-15.8
4,C=C(C)c1cccc(C(C)(C)NC(=O)Nc2ccccc2OCC)c1,19.1
5,CCn1c(CNS(=O)(=O)c2ccc(Br)cc2)n[nH]c1=S,14.6
6,Cc1c(C(=O)NNC(=S)NCc2ccc(Cl)cc2)oc2ccccc12,14.5
7,O=C(c1ccc(Br)s1)N1CCN(c2ccccn2)CC1,3.23
8,COc1ccccc1CNc1ncnc2nc[nH]c12,0.516
9,Cn1cccc1C(=O)NC(=O)COC(=O)CNC(=O)CNC(=O)c1ccc(Cl)cc1Cl,9.93
10,O=C1OC(c2ccc(Br)cc2)=N/C1=C\c1ccco1,26.3
11,COc1ccc(C(=O)/C(=C/c2cccs2)c2nc3ccccc3o2)cc1,-2.22
12,COc1ccc(CNC(=O)CC23CC4CC(CC(C4)C2)C3)cc1OC,-1.44
13,CC1Cc2nc(SCC(=O)N3CCN(c4ccccc4)CC3)n(C)c(=O)c2S1 (stereo not shown),-26.4
14,O=C(CSc1nnc(CNC(=O)C23CC4CC(CC(C4)C2)C3)n1-c1ccc(F)cc1)Nc1ccc(F)cc1,-8.25
15,O=C(C1CC1)N1CCN(c2ccnc3cc(Cl)ccc23)CC1,-73.6
16,Cc1cc(C)cc(OCC(=O)N/N=C/c2ccc([N+](=O)[O-])o2)c1,-15.4
17,CC(C)C(=O)N(c1cc2sc(=O)oc2c2ccccc12)S(=O)(=O)c1cccs1,9.49
18,O=C(Nc1cccc(Cl)c1)c1cnccn1,8.67
19,COCCNC(=O)CCc1c(C)nc2nc(-c3cc(OC)cc(OC)c3)nn2c1C,-1.73
20,CCN(CC)S(=O)(=O)c1ccc(N2CCOCC2)c(NC(=O)c2ccc(NC(C)=O)cc2)c1,-0.15
21,COc1ccc(NC(=O)Nc2cccc3ccccc23)cc1S(N)(=O)=O,16
22,Cc1ccc(C2CN(c3ccccc3)CC2C(=O)c2ccc(F)cc2)cc1 (stereo not shown),-17

row,SMILES,"hERG current change (%, negative = inhibition) at 10uM [%]"
1,C=Cn1c(C(=O)O)ccc1-c1ccc(CC)cc1,-5.29
2,CCOC(=O)c1c(C)c(-c2ccccc2)n(CC(=O)N2CCCC2)c1C,-12.2
3,CC(=O)N(/N=C1\Sc2ccccc2C1=O)c1cccc(C)c1,-14.1
4,O=C(CN(CCc1ccccc1)S(=O)(=O)c1ccc(Br)cc1)N/N=C/c1ccc2c(c1)OCO2,3.05
5,Cc1ccc(CSc2nc3c(c(SCC(=O)O)n2)CCCC3)cc1,2.76
6,COc1ccc(NC(=O)Nc2ccccc2C)c(OC)c1,22.1
7,CCSc1nc2c(c(-c3ccc(C)o3)c1C#N)CCCC2,-6.11
8,CC(=O)[N-]S(=O)(=O)c1ccc(N)cc1.O.[Na+],16.9
9,CC12C=CC(=O)C=C1CCC1C2C(=O)C[C@@]2(C)C1CCC2(O)C(=O)CO (stereo partly shown),25.3
10,CCOC(=O)c1oc2ccc(Br)cc2c1NC(=O)CN1CCN(C)CC1,-65.8
11,O=CN/N=C/c1c(O)ccc2ccccc12,8.94
12,Cc1ccc(C(=O)COC(=O)c2cc(Cl)nc3ccccc23)cc1C,5.82
13,Cc1nc(N2CCCCC2)sc1C(=O)c1ccc(SCCO)c([N+](=O)[O-])c1,-28.4
14,COc1ccc(/C=C2\SC(=S)N(Cc3cccnc3)C2=O)cc1C,-3.04
15,CC(C(=O)OCc1nnc(-c2ccccc2)o1)N1C(=O)C2CCCCC2C1=O (stereo not shown),9.77
16,Cc1c(NC(=S)NC(NC(=O)CC(C)C)C(Cl)(Cl)Cl)c(=O)n(-c2ccccc2)n1C (stereo not shown),9.77
17,Cc1nnn(C23CC4CC(CC(CC(=O)Nc5ccc(C)c(Cl)c5)(C4)C2)C3)n1,-3.04
18,Cc1ccc(OCC(=O)Nc2ccc(NC(=O)c3cccs3)cc2)c(C)c1,18.6
19,Cc1ccc(S(=O)(=O)N/N=c2\oc3ccccc3cc2C(=O)Nc2cccc(C)c2)cc1,-68.1
20,O=C(Nc1ccc(S(=O)(=O)Nc2nccs2)cc1)c1c(F)c(F)c(F)c(F)c1F,-7.41
21,Cc1ccc(F)cc1NC(=S)NCCc1ccccc1,10.4
22,COc1ccc(S(=O)(=O)NCc2ccccn2)cc1NC(=O)c1ccccc1F,13.3

row,SMILES,"hERG current change (%, negative = inhibition) at 10uM [%]"
1,CCOC(=O)COc1cccc2c(=O)n(CC(=O)NCc3ccc4c(c3)OCO4)ccc12,10.4
2,CN(Cc1ccccc1)C(=O)COc1ccc(Br)cc1Cl,-28.1
3,Cc1ccccc1NC(=O)/C(C#N)=C/c1ccc[nH]1,21.2
4,CC1=NNC(=O)C1CCC(=O)N/N=C\c1cccc(Cl)c1 (stereo not shown),17.9
5,CS(=O)(=O)Nc1ccc(S(=O)(=O)NC2CCCCC2)cc1,-5.38
6,CS(=O)(=O)c1ccc2nc(NC3(C(F)(F)F)N=C4SCCN4C3=O)sc2c1 (stereo not shown),-3.53
7,O=C(Nc1ccc2nc(-c3ccc(Br)o3)[nH]c2c1)c1cccs1,-11.1
8,CCCC(C)NC(=O)c1sc2nc3n(c(=O)c2c1C)CCC3 (stereo not shown),-6.29
9,CC1(c2ccc(OC(F)F)cc2)NC(=O)N(CC(=O)NC2CCCC2)C1=O (stereo not shown),-30.1
10,O=C(NCC(=O)N(c1ccc2c(c1)OCCO2)C(C(=O)NC1CCCC1)c1ccco1)c1ccco1 (stereo not shown),-47.2
11,Oc1[nH]c2ccc(Br)cc2c1N=NC(=S)Nc1ccc(F)cc1,20.1
12,S=C(NCC1CCCO1)N1CCN(c2ccc(Cl)c(Cl)c2)CC1 (stereo not shown),-11.2
13,O=C1C2CCCN2C(c2ccccc2)N1c1nccs1 (stereo not shown),17.7
14,COc1ccc(N2CCN(Cc3nc4cc(Cl)ccc4c(=O)[nH]3)CC2)cc1,13.4
15,CSc1nc(N)c2c3c(sc2n1)CN(C)CC3,-12
16,C=CCNCCCCOc1ccc(OCc2ccccc2)cc1.O=C(O)C(=O)O,-42.1
17,O=C(Cc1ccccc1)NN1C(=O)C2C3C=CC(C3)[C@@H]2C1=O (stereo partly shown),11
18,O=C(N1CCOCC1)N1CCN(S(=O)(=O)c2cccc([N+](=O)[O-])c2)CC1,-1.19
19,Cc1ccc(NC(=O)CSCC(=O)Nc2ccccc2C(=O)N2CCCCC2)cc1,6.12
20,NC(=S)Nc1nc2ccccc2s1,15.2
21,COc1cc(C(C(=O)NC(C)(C)C)N(Cc2ccccc2)C(=O)c2cnccn2)cc(OC)c1OC (stereo not shown),5.8
22,Cn1cccc1/C=C1\SC(=Nc2ccccc2)NC1=O,12.3

# Reference: PMC4336329 (PLoS ONE, 2015)
